Here are results for 18 compounds from PubChem BioAssay (NCI).

Molecules are shown by their SMILES.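 Protocol summary: plate cells (96-well), add compound at 5 concentrations, incubate 48 h, interpolate endpoints linearly. GI50 is the concentration that inhibits growth by half. TGI: concentration producing complete growth inhibition.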

The test system of this experiment is NCI-H322M lung. Description: NCI-60 cell line screen, 48 h.
With `CCOC(=O)C(=O)N=Nc1nc2c(O)c3ccccc3c(O)c2s1`, the TGI came to 29.3 µM.

As for `COc1cc([C@@H]2c3cc4c(cc3[C@@H](O[C@@H]3O[C@@H]5CO[C@@H](c6cccs6)O[C@H]5[C@H](O)[C@H]3O)[C@H]3COC(=O)[C@H]23)OCO4)cc(OC)c1O`, the GI50 was 4.21 µM and the TGI is above 100 µM.

For `N#CC1CCN2N=C(c3ccccc3)SC12c1ccccc1` (centres undefined), the TGI was above 100 µM.

Compound `CC(C)(C)[Si](C)(C)O/N=C\c1ccc(O[Si](C)(C)C(C)(C)C)cc1` came in with a TGI above 100 µM.

Turning to `CCOC(=O)C1=C(C)NC(=O)NC1c1coc2cc(C)cc(C)c2c1=O` (centres undefined), the TGI is above 100 µM.

`NCC(NC(=O)OCc1ccccc1)C(=O)O` (centres undefined) displayed a TGI above 50 µM.

As for `C#CCNC(=O)CC[C@]1(C)[C@H]2CC[C@@H]3[C@@H]([C@@](C)(O)CCC=C(C)C)CC[C@@]3(C)[C@]2(C)CC[C@H]1C(=C)C`, the GI50 was above 100 µM and the TGI is above 100 µM.

For `COc1ccc(-c2cc(/C=C3\C(=O)Nc4ccc(OC)cc43)[nH]n2)cc1`, the GI50 is above 100 µM and the TGI is above 100 µM.

In the case of `COC(=O)[C@H](CC(C)C)NC(=O)NC(=O)NC(=O)CI`, the GI50 was above 100 µM and the TGI was above 100 µM.

`CC1C/C(=N\N(C)C)C(C#N)(C#N)C1(C#N)C#N` (centres undefined) had a TGI above 71.4 µM.

Turning to `CC1(C)CCc2cc3c(-c4ccccc4)cc(=O)oc3cc2O1`, the TGI was above 100 µM.

Turning to `c1ccc2sc(C3(N4CCCCC4)CCCCCC3)cc2c1`, the TGI came out at 49.6 µM.

`CC(C)(C)OC(=O)NC(Cc1cnc[nH]1)C(=O)N1CCCC1C(N)=O` (centres undefined) gave a TGI above 100 µM.

`O=C1Nc2ccccc2Nc2nc3cccccc-3c21` yielded a TGI above 100 µM.

Consider `Oc1c(-c2ccccc2)sc2ccccc12`, for which the TGI was found to be 68.6 µM.

On to `O=C1c2ccccc2-c2c1c1ccccc1c(=O)n2CCCN1CCN(CCCn2c3c(c4ccccc4c2=O)C(=O)c2ccccc2-3)CC1`, for which the GI50 was above 100 µM and the TGI was above 100 µM.

As for `C/C(=C\CCc1ccoc1)CC/C=C(\C)CCCN1CCC(CO)CC1`, the GI50 was 6.01 µM and the TGI is 19.9 µM.

`CCN(CC)Cc1nc(C2CCC([N+](=O)[O-])O2)no1` (centres undefined): the TGI came to 66.9 µM.
